# Assay results taken from PubChem BioAssay AID1240 (Sanford-Burnham Center for Chemical Genomics, 2008).
# Hit rate of the full screen: of about 50,000 compounds, about 800 (1.6%) showed an effect of 50% or more. The list shows a part of the results.
# Molecular target: Bcl-2-like protein 10 (Homo sapiens) (UniProt Q9HD36)
# Experiment: Phenotype converters, Bcl-B/TR3 peptide binding displacement, primary biochemical FP (AID 1240);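 also: 0% = Bcl-B with tracer peptide and DMSO and 100% = tracer peptide lacking Bcl-B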
# Details: GST-Bcl-B / FITC-TR3 peptide fluorescence polarization; stronger effect = higher value; compound at 3.75 mg/L
# UniProt Q9HD36, sequence (Q9HD36 whole entry, looked up): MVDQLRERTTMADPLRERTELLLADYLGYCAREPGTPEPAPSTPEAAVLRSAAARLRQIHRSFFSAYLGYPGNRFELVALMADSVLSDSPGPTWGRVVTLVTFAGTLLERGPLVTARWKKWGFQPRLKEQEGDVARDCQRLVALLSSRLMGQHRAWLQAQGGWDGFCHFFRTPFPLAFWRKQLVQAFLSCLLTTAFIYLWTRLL
row,SMILES,displacement
1,COC(=O)c1cc(C(=O)Nc2ccc(Cl)cc2Cl)cc([N+](=O)[O-])c1,0.1%
2,C=CCNC(=O)c1ccc(N2C(=O)c3ccccc3C2=O)cc1,18.6%
3,COc1cccc(N2C(=O)/C(=C/c3ccc(O)c(OC)c3)SC2=S)c1,-10.6%
4,COC(=O)c1cccc(NC(=O)c2c(-c3ccccc3Cl)noc2C)c1,-0.4%
5,CC(C)(C)CC(C)(C)NC(=O)CSCC(=O)Nc1ccc2ccccc2c1,7.5%
6,Fc1ccccc1-n1nnnc1SCc1cc2c(cc1Cl)OCO2,-2.6%
7,CCOc1ccccc1NC(=O)c1cc([N+](=O)[O-])ccc1N1CCN(C)CC1,14%
8,CCCCOC(=O)C1=C(C)N(C)C(=O)NC1c1ccc(O)c(OC)c1 (stereo not drawn),3.2%
9,O=S(=O)(c1ccccc1)N1CCCc2ccccc21,-11.6%
10,COc1ccc2c(c1)/C(=N/OC(=O)c1ccc(OC)c(OC)c1)CCC2,-7.2%
11,CCCOc1cccc(C(=O)Nc2nc(-c3ccc(F)cc3F)cs2)c1,0.3%
12,Cc1cc(C)[n+]2cc(Br)ccc2n1,20.9%
13,O=C(Nc1ccccc1C(F)(F)F)c1cnn2c(C(F)(F)F)cc(-c3ccccc3)nc12,7%
14,Cc1cc(C)cc(N2C(=O)NC(=O)/C(=C\c3ccc4c(c3)OCO4)C2=O)c1,-22.8%
15,CCOc1cc(C(=O)Nc2cccc(C(C)=O)c2)cc(OCC)c1OCC,7.4%
16,COc1ccc(/C=C/C(=O)c2ccc3c(c2)OCCO3)cc1OC,17.5%
17,Cc1ccc(C(=O)Nc2ccc(O)c(C(=O)O)c2)o1,0.2%
18,CCOc1cccc(-c2cc(C(=O)Nc3ccccn3)c3ccccc3n2)c1,41%
19,C=CCn1c(CSc2nc3sc4c(c3c(=O)[nH]2)CCCC4)n[nH]c1=S,-7.3%
20,COc1ccccc1NC(=O)c1c(O)c2ccccc2[nH]c1=O,-1.5%
21,CCCCNC(=O)c1cc2n(n1)C(C(F)(F)F)CC(c1ccc(Cl)c(Cl)c1)N2 (stereo not drawn),0.5%
22,Cc1cc(Cl)cc(Cl)c1OCCNC(C)(C)C,6.3%

row,SMILES,displacement
1,CCCc1cc(=O)oc2cc(OCC(=O)c3ccc(F)cc3)ccc12,8.2%
2,Cc1ccc(OCCCCN2CCC(C)CC2)c(C)c1,-12.3%
3,O=C(Nc1ccc(F)cc1F)c1cccc(I)c1,-14.8%
4,CC(=O)Oc1cccc(C(=O)Nc2cccc(C(=O)c3cccc(C)c3C)c2)c1,7.6%
5,COC(=O)C1CC(=O)N(c2ccc(Cl)cc2)C1 (stereo not drawn),12.4%
6,CN(C)c1ccc(NS(=O)(=O)c2ccccc2[N+](=O)[O-])cc1,9.8%
7,COc1ccc(C(=O)N2CCN(c3cccc(C)c3C)CC2)c(OC)c1,-4.4%
8,COc1ccccc1C(=O)Nc1ccc(C)cc1[N+](=O)[O-],-0.2%
9,Cc1ccc(S(=O)(=O)Oc2ccc(/C=C3\SC(N)=NC3=O)cc2)cc1,-11.9%
10,CC(=O)N(c1ccc(C)cc1)c1nc(-c2ccccc2)c(-c2ccccc2)s1,5.7%
11,COc1ccc(Cl)cc1NC(=O)C(=O)NCc1ccncc1,-8.1%
12,COc1cc(-c2nnc(NC(=O)c3ccc(C(C)(C)C)cc3)s2)cc(OC)c1OC,-1.4%
13,CCOC(=O)c1nnc2cc(-c3ccccc3)nn2c1C,-2.5%
14,Cc1ccnc(NS(=O)(=O)c2ccc(NC(=O)C3CCCO3)cc2)n1 (stereo not drawn),-6.1%
15,Cc1cc(C)c(C=C2C(=O)c3ccccc3C2=O)c(C)c1C,-8.6%
16,CCOc1ccc(-c2cn3c4ccccc4n(CCN(CC)CC)c3n2)cc1,-8.7%
17,Cc1ccc(-c2cc(-c3ccccc3)nc(N/N=C/c3ccccc3O)n2)cc1,-4.1%
18,CCOc1cc(CNCc2cc(OC)cc(OC)c2)ccc1OC,5.1%
19,N#CC1=C(N)Oc2cc(N)ccc2C1c1ccc(OCc2ccccc2)cc1 (stereo not drawn),-21.1%
20,O=C(CCc1ccccc1)Nc1cc([N+](=O)[O-])ccc1F,-6%
21,COC(=O)c1ccc(/C=C2\SC(=S)N(c3cccc(C)c3C)C2=O)cc1,14%
22,Nc1cc(N)c(N2CCCCC2)cc1N1CCCCC1,1.6%

row,SMILES,displacement
1,O=C(Nc1ccccc1C(=O)Nc1nccs1)c1ccccc1,-6%
2,COc1cccc2c3c(c(C)nc12)CC(C)S3 (stereo not drawn),-6.4%
3,Cc1ccc(C(=O)Nc2nc(-c3ccccc3)cs2)cc1[N+](=O)[O-],6.2%
4,C/C=C/COC(=O)C1=C(C)NC(=O)NC1c1ccc(Br)cc1 (stereo not drawn),-2.1%
5,CCN(CC)Cc1c(O)ccc2c(-c3ccccc3)cc(=O)oc12,-8.3%
6,N#CC(=C1CCCCC1)c1nc(-c2cc3ccccc3oc2=O)cs1,19%
7,Cc1ccc(NC(=O)C(=O)NCCN2CCN(C(=O)c3ccccc3[N+](=O)[O-])CC2)cc1,-0.2%
8,CC(C)N/C=C/C(=O)c1ccc(Br)cc1,-7.1%
9,Cc1c(NC(=O)c2ccc(-c3ccc(Cl)cc3Cl)o2)cccc1-c1nc2ncccc2o1,9%
10,C/C(CC(=O)Nc1ccccc1Cl)=N\NC(=O)c1ccco1,-16.6%
11,CCSc1nnc(NC(=O)c2ccc([N+](=O)[O-])cc2[N+](=O)[O-])s1,0.9%
12,CCOC(=O)N1CCN(C(=O)NC23CC4CC(CC(C4)C2)C3)CC1,-3.4%
13,[O-][n+]1c2c(nc3c1-c1ccccc1C3O)CCCC2 (stereo not drawn),-5.3%
14,Fc1cccc(CN2CCN(Cc3ccncc3)CC2)c1,-3.1%
15,O=C1NC(=Nc2cccc(Cl)c2Cl)S/C1=C\c1ccccc1,-3.6%
16,O=C1c2cccc3c(Br)ccc(c23)C(=O)N1Oc1ccc([N+](=O)[O-])cc1[N+](=O)[O-],11.8%
17,C(=N/N1CCN(C(c2ccccc2)c2ccccc2)CC1)/c1ccccc1,-8.1%
18,COc1ccc(C(O)P(=O)(OC(C)C)OC(C)C)cc1OC (stereo not drawn),12.2%
19,Cc1ccc(-c2nc3ccccc3[nH]2)cc1NC(=O)Cc1ccccc1,8.8%
20,CCOC(=O)c1c(-c2ccccc2)csc1NC(=O)COc1ccc(Cl)cc1,5.2%
21,O=C(Nc1ccc2c(c1)OCO2)c1nn2c(C(F)(F)F)cc(-c3ccco3)nc2c1Cl,-0.4%
22,O=C(NOC(=O)c1cccc(I)c1)c1ccc(Cl)cc1,11.7%

row,SMILES,displacement
1,Cc1ccc(C2(c3ccc(C)cc3)CC2C(=O)Nc2ccccc2)cc1 (stereo not drawn),-2.9%
2,COc1ccc(CN2CCN(C(=O)c3ccccc3F)CC2)cc1Br,-3.3%
3,CCCCCOC(=O)C1=C(C)NC2=C(C(=O)CCC2)C1c1ccc(OC)c(Br)c1 (stereo not drawn),8.9%
4,COc1ccc(S(=O)(=O)N(CC(=O)O)Cc2ccccc2)cc1,7.8%
5,COc1cc(NC(=O)COc2ccc(C)c(C)c2)c(OC)cc1Cl,0.4%
6,COc1ccc(/C=C2\SC(=S)N(C(C)C(=O)O)C2=O)cc1 (stereo not drawn),-0.2%
7,CCCC(=O)Nc1ccc(NC(=O)c2ccc(OC)c(Br)c2)cc1,0.9%
8,Oc1ccccc1C1=NCCNC(C(F)(F)F)=C1,10.6%
9,NC(=O)c1cccc(S(=O)(=O)N2CCOCC2)c1,-4.7%
10,COC(=O)c1ccc(-c2ccc(/C=C3\C(=O)NN(c4ccccc4)C3=O)o2)cc1,3.5%
11,Cc1cccc(NC(=O)c2ccccc2N)c1C,-9.2%
12,CCn1c2ccccc2c2cc(C3C(C(=O)OC)=C(C)NC4=C3C(=O)CCC4)ccc21 (stereo not drawn),1.8%
13,Cc1cc(NC(=O)CCc2ccccc2)ccc1NC(=O)CCc1ccccc1,3.4%
14,COc1ccc(OC)c(NC(=O)CN(c2cc(Cl)cc(Cl)c2)S(C)(=O)=O)c1,-2.6%
15,Cc1cc2nc(-c3ccc(C)c(NC(=O)COc4ccc([N+](=O)[O-])cc4)c3)oc2cc1C,-54.1%
16,COc1ccc(-c2ccc(/C=C/C(=O)c3ccc(C)cc3)o2)cc1,91.1%
17,COc1cc(/C=C2/SC(=S)N(C)C2=O)ccc1OC(=O)c1cccs1,14.9%
18,COc1ccc(C(=O)N2CCN(Cc3cc(OC)c(OC)c(OC)c3)CC2)cc1OC,-11.9%
19,CC1=C(C(=O)Nc2ccccc2)C(c2ccc(C)cc2)NC(=O)N1 (stereo not drawn),-1%
20,c1ccc(-c2ccc(-c3nc(-c4ccccc4)no3)cc2)cc1,-5.4%
21,COc1cc(C=O)c(Br)cc1OCc1ccc(Cl)cc1,1.9%
22,O=S(=O)([O-])C/C(=C\c1ccc(Cl)cc1)c1cc[n+](CCO)cc1,3.9%

row,SMILES,displacement
1,COc1cc(/C=N\NC(=O)c2cccc(Cl)c2)ccc1OCCOCCOc1ccc(C)cc1,-7.7%
2,O=C(O)/C=C\C(=O)N(c1ccccc1)c1ccc2ccccc2c1,10.5%
3,O=C(CCCN1CCN2CCCCCC2C1)c1ccc(F)cc1 (stereo not drawn),-1.3%
4,COC(=O)c1cc(NC(=O)/C=C/c2ccccc2Cl)cc(C(=O)OC)c1,-2.1%
5,COc1ccc(OC)c(C2/C(=C(\O)c3ccccc3)C(=O)C(=O)N2CCCCCC(=O)O)c1 (stereo not drawn),3.4%
6,CCc1ccccc1N/C(N)=N\c1nc(C)cc(C)n1,-4.5%
7,COCCN1C(=O)/C(=C/c2cccc3ccccc23)SC1=S,6.1%
8,CC1=C(C(=O)OC2CCCC2)C(c2ccccc2[N+](=O)[O-])C2=C(CC(C)(C)CC2=O)N1 (stereo not drawn),-6.2%
9,Cc1cccc(C(=O)O/N=C(\N)Cc2ccc([N+](=O)[O-])cc2)c1,-11.2%
10,CCOc1cccc(/C=N/N2CCN(Cc3cccc4ccccc34)CC2)c1O,-8.1%
11,Clc1cccc(-c2ccc(/C=N/n3cnnc3)o2)c1,5.2%
12,COc1ccc(C2Nc3ccccc3NC3=C2C(=O)CC(c2ccc(Cl)cc2)C3)cc1 (stereo not drawn),-7%
13,O=C(/C=C\c1ccco1)c1ccc(-n2nncc2C23CC4CC(CC(C4)C2)C3)cc1,-20.1%
14,CCOc1ccc(N/C(=N\S(=O)(=O)c2ccc(NC(C)=O)cc2)Nc2nc(C)cc(C)n2)cc1,-5.8%
15,COC(=O)c1c(-c2ccc(C(C)(C)C)cc2)csc1N,5.7%
16,COc1ccc(NC(=O)CCC(C(C)=O)[N+](=O)[O-])cc1 (stereo not drawn),-4.2%
17,COc1ccccc1C(=O)N1CCN(c2ccc(F)cc2)CC1,-13.4%
18,CC(=O)Nc1ccc(S(=O)(=O)Nc2cccc(C(=O)Nc3ccccc3C(=O)O)c2)cc1,-15.8%
19,COc1ccccc1N1C(=O)C2C(C1=O)C2(c1ccccc1)c1ccccc1 (stereo not drawn),-5.5%
20,O=c1[nH]c(=S)n(-c2cccc(Cl)c2)c(O)c1/C=C1/C=CC=N1,45.4%
